This is one part of the list. Each Rep nickase domain was tested in vitro on the same pool of single strands (3 µM enzyme, 1 h, 37 °C); shown is the middle of each 90-letter strand. The score is log2 (uncut reads / reads without enzyme); uncut sequences lie near 0, cut ones below; no hit call is given. The scaling is to total reads, so uncut sequences can rise above 0 when many others are cut.
Tests used:
Experiment in all cases: uncleaved DNA left, log2 of reads against the no-enzyme library (log2 ratio); higher = less cleavage (more negative = more Rep cleavage of the k-mer); sequences stand for … in CTCGTCCG…ACCGGAGA
[1] = system: T1, Rep nickase domain of Muscovy duck circovirus
T1 sequence (protein, residues 1-111, tag omitted): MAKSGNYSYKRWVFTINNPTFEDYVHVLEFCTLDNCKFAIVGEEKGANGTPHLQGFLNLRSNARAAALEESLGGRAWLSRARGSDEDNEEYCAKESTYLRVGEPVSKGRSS
Experimental: (§1)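 A pool of 90-nt single-stranded DNAs with seven random bases just before the constant AC of the nick site (name = the seven bases) was cut by 3 µM recombinant His6-SUMO-tagged Rep nickase domain (300 nM DNA, 50 mM HEPES pH 8.0, 50 mM NaCl, 1 mM MnCl2, 1 h, 37 °C, three replicates). Uncut DNA was amplified and sequenced.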

[2] = system: T2, Rep nickase domain of banana bunchy top virus
T2 sequence (protein, residues 1-94, tag omitted): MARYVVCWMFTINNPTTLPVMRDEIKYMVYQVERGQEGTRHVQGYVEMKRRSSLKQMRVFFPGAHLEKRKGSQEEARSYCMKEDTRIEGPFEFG
Experimental: as §1

[3] = system: T3, Rep nickase domain of cabbage leaf curl virus
T3 sequence (protein, residues 1-116, tag omitted): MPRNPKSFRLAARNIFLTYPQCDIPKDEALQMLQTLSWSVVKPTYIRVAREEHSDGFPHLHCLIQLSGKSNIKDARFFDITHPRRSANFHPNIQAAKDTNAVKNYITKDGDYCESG
Experimental: as §1

[4] = system: T4, Rep nickase domain of chickpea chlorotic dwarf virus
T4 sequence (protein, residues 1-124, tag omitted): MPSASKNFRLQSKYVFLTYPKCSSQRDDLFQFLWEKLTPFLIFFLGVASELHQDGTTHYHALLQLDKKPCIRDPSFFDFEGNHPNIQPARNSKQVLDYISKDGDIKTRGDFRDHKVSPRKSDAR
Experimental: as §1

[5] = system: T5, Rep nickase domain of faba bean necrotic yellows virus
T5 sequence (protein, residues 1-98, tag omitted): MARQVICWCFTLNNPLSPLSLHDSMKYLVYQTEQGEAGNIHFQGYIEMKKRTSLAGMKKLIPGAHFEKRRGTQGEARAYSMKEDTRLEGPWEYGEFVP
Experimental: as §1

[6] = system: T6, Rep nickase domain of maize striate mosaic virus
T6 sequence (protein, residues 1-117, tag omitted): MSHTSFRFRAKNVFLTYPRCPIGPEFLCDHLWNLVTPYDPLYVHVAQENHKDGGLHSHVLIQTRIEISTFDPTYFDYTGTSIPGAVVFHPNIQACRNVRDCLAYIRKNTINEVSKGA
Experimental: as §1

[7] = system: T7, Rep nickase domain of porcine circovirus 2
T7 sequence (protein, residues 2-116, tag omitted): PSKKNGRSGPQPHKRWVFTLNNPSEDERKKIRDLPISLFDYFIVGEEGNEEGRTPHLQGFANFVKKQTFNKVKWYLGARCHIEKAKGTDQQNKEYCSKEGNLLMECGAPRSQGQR
Experimental: as §1

[8] = system: T8, Rep nickase domain of tomato yellow leaf curl virus
T8 sequence (protein, residues 1-136, tag omitted): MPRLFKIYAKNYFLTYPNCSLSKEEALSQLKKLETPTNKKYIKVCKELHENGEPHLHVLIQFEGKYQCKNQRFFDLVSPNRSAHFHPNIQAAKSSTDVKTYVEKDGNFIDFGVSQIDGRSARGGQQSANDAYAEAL
Experimental: as §1

[9] = system: T9, Rep nickase domain of wheat dwarf virus
T9 sequence (protein, residues 1-137, tag omitted): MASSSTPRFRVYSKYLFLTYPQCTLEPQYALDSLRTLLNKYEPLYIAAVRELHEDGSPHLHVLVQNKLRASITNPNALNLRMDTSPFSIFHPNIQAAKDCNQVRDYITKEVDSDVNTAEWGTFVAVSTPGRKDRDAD
Experimental: as §1

Sequence | uncleaved DNA left (log2) [1] | uncleaved DNA left (log2) [2] | uncleaved DNA left (log2) [3] | uncleaved DNA left (log2) [4] | uncleaved DNA left (log2) [5] | uncleaved DNA left (log2) [6] | uncleaved DNA left (log2) [7] | uncleaved DNA left (log2) [8] | uncleaved DNA left (log2) [9]
GTCTCAT | -0.0283 | 0.0624 | 0.319 | 0.879 | 0.0129 | 1.77 | -0.0374 | 0.00217 | 0.0484
TGTGGCG | -0.0333 | -0.03 | -0.567 | 0.733 | 0.012 | -0.264 | 0.0871 | -0.0103 | -0.151
CAGTAGG | 0.0224 | -0.0513 | -0.14 | 0.178 | -0.0429 | -0.817 | -0.137 | -0.0639 | -0.105
TCTTGTA | -0.0917 | -0.0241 | -0.1 | -1.09 | -0.0494 | -1 | -0.507 | -0.00709 | -0.179
CCGTTTA | -0.106 | -0.0087 | -0.0887 | -0.733 | -0.237 | -0.251 | -0.228 | -0.161 | -0.126
AAGGGAT | -0.0911 | -0.123 | 0.178 | 1.52 | -0.142 | 1.73 | 0.036 | -0.269 | -0.0941
CTGATGG | -0.0534 | -0.139 | -0.209 | -0.0147 | -0.00214 | -0.724 | -0.00161 | -0.19 | -0.159
TGGGAGT | 0.206 | 0.143 | 0.815 | 1.73 | -0.108 | 2.06 | 0.241 | 0.0496 | 0.212
TTCTGAA | 0.0386 | -0.0118 | 0.123 | -0.108 | -0.104 | 0.112 | -0.0938 | -0.14 | -0.0119
AGCGTGA | 0.0421 | 0.0669 | 0.134 | 0.523 | 0.0416 | 1.09 | -0.0336 | 0.134 | 0.255
TCAATGC | -0.0352 | 0.00963 | -0.728 | -0.533 | -0.0185 | -1.34 | 0.132 | 0.0168 | -0.198
CGGGGTA | 0.063 | 0.0295 | 0.559 | 0.957 | 0.0179 | 1.6 | 0.107 | 0.0225 | 0.168
GTAGGGG | 0.123 | 0.0371 | 0.411 | 0.776 | 0.046 | 0.65 | 0.225 | 0.0931 | 0.143
GTTATGC | -0.00746 | -0.000799 | 0.112 | 0.477 | -0.021 | -0.0386 | 0.12 | 0.0667 | 0.0344
AGAAACT | 0.0441 | 0.0344 | 0.214 | -1.63 | 0.0287 | 0.594 | -0.203 | -0.0765 | 0.0192
TCGCCCG | 0.0671 | 0.00105 | -0.801 | -0.647 | -0.0527 | -0.844 | -0.245 | -0.0912 | -0.188
GGTAGAA | 0.0746 | 0.0252 | 0.592 | 1.33 | -0.00323 | 1.88 | 0.14 | 0.0288 | 0.158
CTTTCGG | -0.0649 | -0.113 | 0.396 | 1.3 | -0.121 | 1.47 | 0.0841 | -0.0991 | 0.0534
GTTTGTT | -1.64 | 0.00292 | 0.324 | 0.453 | -0.0272 | 1.44 | -2.09 | -0.0157 | -0.107
GTGACTA | 0.101 | 0.27 | 0.522 | 1.44 | 0.0276 | 2.08 | 0.266 | 0.188 | 0.315

Sequence | uncleaved DNA left (log2) [1] | uncleaved DNA left (log2) [2] | uncleaved DNA left (log2) [3] | uncleaved DNA left (log2) [4] | uncleaved DNA left (log2) [5] | uncleaved DNA left (log2) [6] | uncleaved DNA left (log2) [7] | uncleaved DNA left (log2) [8] | uncleaved DNA left (log2) [9]
TTTTGGT | -1.57 | -0.0408 | 0.13 | -0.176 | 0.0288 | -0.18 | -1.23 | 0.0199 | -0.0203
GGACCCG | 0.0227 | -0.0404 | 0.515 | 1.18 | -0.0578 | 0.578 | 0.0119 | -0.0476 | 0.0482
AGACGTC | 0.13 | 0.00455 | 0.718 | 1.18 | 0.104 | 1.11 | 0.121 | 0.0398 | 0.132
GTTAGTA | 0.0714 | 0.106 | 0.449 | 0.919 | 0.0679 | 1.89 | 0.273 | 0.212 | 0.179
TCTTTCT | -1.7 | -0.242 | -0.191 | -2.23 | -0.161 | -0.921 | -2.78 | -0.184 | -0.228
CCGATTT | -0.184 | -0.209 | -0.237 | -1.97 | -0.112 | -0.496 | -0.709 | -0.17 | -0.362
AGTCCGT | 0.0017 | -0.0113 | -0.021 | -0.0843 | 0.0379 | -0.623 | -1.31 | -0.0804 | 0.0234
CATTAAT | -3.64 | -3.47 | -0.767 | -2.35 | -1.04 | -1.01 | -3.62 | 0.0195 | -0.298
AAGATCC | 0.0676 | 0.0976 | 0.128 | -0.0813 | -0.0371 | 0.197 | 0.0039 | -0.0649 | 0.0502
GCCCGTC | -0.0138 | -0.0364 | 0.235 | 0.557 | -0.0261 | 0.334 | 0.0787 | 0.0857 | 0.06
GCGACAG | -0.051 | 0.101 | 0.0887 | 0.878 | -0.0554 | 1.66 | 0.00211 | -0.189 | 0.0224
CGGTTAA | 0.0788 | 0.0096 | 0.0184 | 0.1 | -0.00716 | 0.143 | -0.00148 | -0.0747 | -0.0301
GAAACGC | 0.147 | 0.137 | 0.0683 | 0.0921 | 0.0271 | -0.421 | 0.2 | 0.106 | 0.137
GCCGATC | 0.0314 | -0.0725 | -0.0379 | 0.518 | 0.0157 | -0.0808 | 0.0345 | -0.0274 | 0.0455
ACAGTCA | -0.0572 | 0.00188 | -0.263 | -1.52 | -0.031 | -0.905 | -0.0423 | -0.132 | -0.126
TACGGGT | -0.000852 | 0.0171 | 0.179 | 0.729 | -0.0177 | 1.24 | 0.132 | 0.0151 | -0.00848
TAATTCC | -0.0792 | -0.11 | -3.9 | -3.21 | 0.089 | -3.21 | -0.212 | -0.0626 | -3.5
AAAGAGA | 0.0731 | 0.0396 | 0.316 | 0.444 | 0.112 | -0.235 | 0.136 | -0.0978 | 0.107
TTTGAAC | -0.0536 | -0.0674 | 0.13 | -0.205 | -0.00509 | -0.479 | -0.0421 | -0.031 | 0.00426
CCTCAAT | -0.0977 | -0.188 | -0.0128 | -0.0673 | -0.0453 | 0.146 | -0.146 | 0.0189 | -0.11

Sequence | uncleaved DNA left (log2) [1] | uncleaved DNA left (log2) [2] | uncleaved DNA left (log2) [3] | uncleaved DNA left (log2) [4] | uncleaved DNA left (log2) [5] | uncleaved DNA left (log2) [6] | uncleaved DNA left (log2) [7] | uncleaved DNA left (log2) [8] | uncleaved DNA left (log2) [9]
ACCTGAA | 0.0185 | 0.0646 | -0.0219 | 0.0456 | 0.0913 | -0.326 | 0.0782 | 0.114 | 0.0592
TTATGAC | -0.038 | -0.0896 | 0.156 | 0.0859 | -0.0245 | -0.384 | -0.0322 | -0.0237 | -0.0775
ATCTGTA | 0.0486 | -0.0256 | -0.0279 | 0.0886 | 0.0109 | 0.464 | -0.113 | -0.0631 | -0.0221
TTGTCGA | -0.122 | -0.204 | -0.928 | -0.646 | -0.127 | -1.17 | -0.158 | -0.155 | -0.196
GCGAGAA | 0.0414 | 0.0855 | 0.392 | 0.763 | 0.195 | 0.537 | 0.0243 | 0.0172 | 0.092
GACTTGA | 0.106 | 0.12 | 0.243 | 0.673 | 0.099 | 0.594 | -0.148 | 0.0953 | 0.0563
GACGGCC | 0.00376 | 0.0953 | 0.182 | 0.589 | -0.0336 | 0.33 | 0.0834 | 0.0487 | 0.153
ACTAAAC | 0.0575 | 0.0921 | -0.152 | -0.361 | 0.0562 | -0.695 | 0.135 | -0.138 | 0.00595
CATGTCG | -0.0069 | -0.15 | -0.659 | 0.411 | -0.0654 | -0.653 | 0.0886 | 0.0463 | -0.181
CCGTTCT | -1 | -0.145 | 0.00716 | -1.63 | -0.054 | -0.539 | -2.65 | 0.0756 | -0.259
AGAAACA | 0.12 | 0.117 | 0.302 | -1.04 | 0.235 | 0.0996 | 0.151 | 0.0762 | 0.157
GCGTGTG | 0.0143 | -0.111 | -0.588 | -0.308 | -0.156 | -0.572 | 0.0163 | -0.0519 | -0.228
ATGGTAA | 0.0312 | -0.149 | 0.158 | 0.398 | -0.0116 | 0.696 | 0.0721 | -0.042 | 0.0305
ATAGATC | 0.107 | -0.0014 | 0.0285 | 0.188 | 0.0741 | -0.315 | 0.151 | -0.0786 | 0.0738
GACACGG | -0.0914 | 0.0603 | 0.416 | 1.44 | -0.027 | 1.87 | 0.0997 | -0.136 | 0.0841
TTTTTAA | 0.105 | 0.0724 | 0.324 | 0.267 | -0.0759 | 0.91 | 0.0264 | 0.0571 | 0.0382
CTAATAA | -0.00135 | 0.228 | 0.0178 | -0.314 | 0.122 | -0.658 | 0.23 | 0.0921 | 0.213
TTCCAAA | 0.0586 | -0.0604 | 0.254 | 0.28 | -0.0212 | -0.0596 | 0.071 | 0.0808 | 0.102
TCTGAAA | 0.000394 | 0.0844 | 0.157 | 0.26 | 0.13 | -0.0805 | 0.116 | -0.0293 | 0.0795
AGCGAGA | -0.0335 | 0.147 | 0.207 | 0.721 | 0.151 | 1.29 | 0.0891 | 0.0475 | 0.114

Source: the supplement of paper PMC7826260
